From paper PMC12136788
The list shows a part of the results.

T1: UNK ZnF1-3 (human, UniProt Q9C0B0 31-174)
T1 sequence: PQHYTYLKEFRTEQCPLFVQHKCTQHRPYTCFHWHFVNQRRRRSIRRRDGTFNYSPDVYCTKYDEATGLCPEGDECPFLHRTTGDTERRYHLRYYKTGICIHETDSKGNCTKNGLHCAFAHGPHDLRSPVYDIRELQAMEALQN

B1: chr1:167409666:167409667:+_ENSMUSG00000026568_ENSMUST00000027853|mus_mus|FALSE|FALSE (ssRNA)
RNA: GGGAGUUCUACAGUCCGACGAUCUUCUUGGUUAUAUCUCCAAAUCCGAAACAGCUGAGAGGCUCCUGCUGACCCCACAAAGAAAUUAACAGCGAACAAACUCCAAUUUUUUGGUAUAAUUACAAGUGAAUAUCUUGACCAAAUCAACAGAGGAUUGAGCAUCA
B2: chr2:176857102:176857103:-_ENSG00000144320_ENST00000272748|hu_mus|motif|central (ssRNA)
RNA: GGGAGUUCUACAGUCCGACGAUCAGAAUAGAUAAUUAAUCUUCCAACCCAUAAUUUUUGCAAUCUCUGAUUUUUUUCUCGGAAUUCUUCCAAUGCUUGAAUUUCCUUAUCUAUAUUUUCUAGAACUUCUACUGUUGAAGGUUUCAACAGAGGAUUGAGCAUCA
B3: chr4:155193719:155193720:+_ENSMUSG00000029068_ENSMUST00000139066|mus_mus|motif|central (ssRNA)
RNA: GGGAGUUCUACAGUCCGACGAUCAGACAAAAGCAACAAAACACUAAAAGUGGCAUCAAACUAAGUACACUUAAAAAUGCGGUAAUACUUUAGAUGAUAUGUAAGUACAAAACUUCACAUUUUUAGAAAAGUUAAAGGUCAUUUCAACAGAGGAUUGAGCAUCA
B4: chr3:133545784:133545785:-_ENSG00000154917_ENST00000285208|hu_hu|FALSE|FALSE (ssRNA)
RNA: GGGAGUUCUACAGUCCGACGAUCGCACAUGUAUCUCCGUGAGGAUGUGUUUGUGGAAGGUGUAUACACAAGUCUAUCUCUAUAUAUAAUUAUGUACACACAUAUAAAAACUAAACACAUGACAUCUGAAACACGUUCAAACAUCAACAGAGGAUUGAGCAUCA
B5: chr4:57314706:57314707:+_ENSG00000128050_ENST00000264221|hu_mus|hu_hu_hu_mus_True|88_88 (ssRNA)
RNA: GGGAGUUCUACAGUCCGACGAUCCAGAAUUUCAAAAAUAGCUUGUGUAGCAUGACUCAUGAUGUCCACUUCAGUCUGCCCUAUAACAAGGCCAGCAAAACAGAAUUUUGCAGCAAUGAGUUGCUCCUCAGACCACUGUGGAUCCAACAGAGGAUUGAGCAUCA
B6: 160287392_160287512_2467_CDS_ENSG00000123636_ENST00000355831|human|control|control (ssRNA)
RNA: GGGAGUUCUACAGUCCGACGAUCAAGUGUGGAAGAAGAUGUACCAAGAAAAGCAGGUGACUGGGAUUCAGAACAUAAGGCAGCAGGAGCAGAGCCUGGGGCUUUUGCUAUGUGGAGGUUACGAGGUGUUGAGUGACCUGUGAGCAACAGAGGAUUGAGCAUCA

Target: T1, UNK ZnF1-3
Assay: nsRBNS (natural sequence RNA bind-n-seq); RBNS binding buffer (assumed for nsRBNS): 25 mM Tris pH 7.5, 150 mM KCl, 3 mM MgCl2, 0.01% Triton X-100, 500 ug/ml BSA, 20 U/ml SUPERase-In, 4 C; UNK is unkempt and MSI1 is Musashi-1; names of the RNAs are library labels; protein concentration not given here; high values mean tight binding

| Binder | binding signal |
| --- | --- |
| B1 | 1.53 enrichment R |
| B2 | 0.385 enrichment R |
| B3 | 1.09 enrichment R |
| B4 | 0.913 enrichment R |
| B5 | 0.931 enrichment R |
| B6 | 1.83 enrichment R |
